Our source for the self-cleavage values is the RNAGym collection of RNA variant scans (doi:10.7554/elife.90254).

The source gives no read counts; variants with many changes may rest on few reads.

The labels stand for the following.
B1: LINE1-mini (parent)
chain: GGCAGAGCUCAACACAGCGUGGCAAAGUGGCUGUGGCUAGACUGCC

This data set covers variants of B1. Briefly: self-cleavage, relative activity (ratio to wild type); higher = more cleavage; in vitro, sequencing; the parent is a self-cleaving ribozyme.
As for GGCAGAGCUCAACACAGUGUGGCAAAGUGGCCGUGGCUAGACUGGC [C18U U32C C45G], the self-cleavage was 0.03.

On to GGCAGAGCUCAACACAGUGUGGCAAAGUCGCUGUGGCUACACCGAC [C18U G29C G40C U43C C45A], for which the self-cleavage is 0.06. Consider GGCAGAGCUCAACACAGGGUGGCAAAGUGCAUGUGGUUAGACUGCU [C18G G30C C31A C37U C46U], for which the self-cleavage is 0.01. As for GGCAGAGCUCAACACAGUGUGGCACAGUAGCUGUGGCUAGACUGCC [C18U A25C G29A], the figure is 0.46; as for GGCAGAGCUCAACACAGGGUGGCAAAGUUGCUGUGGCUAGAAUGCC [C18G G29U C42A], 0.09. The figure for GGCAGAGCUCAACACAGCAUGGCAAAGUGGCUGUGGCUAGGCGGCC [G19A A41G U43G] is 0.1; for GGCAGAGCUCAACACAGUGUGGCAAUGUGGCUGUGGCUAGUCUGCC [C18U A26U A41U] it is 0.73.

Regarding GGCAGAGCUCAACACAGUGUGGCAAAGUGGCUGUGGCCAGUCGGCC [C18U U38C A41U U43G], the self-cleavage is 0.05. As for GGCAGAGCUCAACACAGUGUGGCAAAGUUGCUGUCGCUAGACUGCA [C18U G29U G35C C46A], the figure is 0.05. As for GGCAGAGCUCAACACAGUCUGGCAAAGUGGCUGUGGCUUGACUGCC [C18U G19C A39U], the figure is 0.07; as for GGCAGAGCUCAACACAGCAUGGAAAAGUGGCUGUGUCUAGAAUACC [G19A C23A G36U C42A G44A], 0.12. With GGCAGAGCUCAACACAGUGUGGAAAAGUGGCUGUGGCUAGACUGUC [C18U C23A C45U], the self-cleavage came out at 0.94. Consider GGCAGAGCUCAACACAGGGUGGCAAAGUGGCUGUGCCUAGUCUGCC [C18G G36C A41U], for which the self-cleavage was 0.02.

As for GGCAGAGCUCAACACAGUGUGGCAAAGUAGCGGUGGCUAGACUUCC [C18U G29A U32G G44U], the self-cleavage was 0.04.

Take GGCAGAGCUCAACACAGUGUAGCAAAGUGCCUGUGUCUAGACUGCC [C18U G21A G30C G36U]: the self-cleavage amounted to 0.07. The figure for GGCAGAGCUCAACACAGUGUGGCAAAGUGGCUGUCGCUAGACUCAC [C18U G35C G44C C45A] is 0. The figure for GGCAGAGCUCAACACAGUGUGGCAAAGUCGCUGAGGGUAGACUGCC [C18U G29C U34A C37G] is 0.01; for GGCAGAGCUCAACACAGCAUGGCAAGGUGGCUGUGGCUAGACCGCC [G19A A26G U43C] it is 0.1; for GGCAGAGCUCAACACAGUGUAAGAUGGUGGCUGUGGCCAGACUGCC [C18U G21A G22A C23G A25U A26G U38C] it is 0.14. As for GGCAGAGCUCAACACAGUGUGGCAAAGGGGCAGUGGCUAGACUGCC [C18U U28G U32A], the figure is 0.06; as for GGCAGAGCUCAACACAGUGUGGCUAGGUGGCUGUGGCUAUACUGCC [C18U A24U A26G G40U], 0.03. Take GGCAGAGCUCAACACAGGGAGGCAAAGUGGUUGUGGCUAGACUGCA [C18G U20A C31U C46A]: the self-cleavage is 0.05. The figure for GGCAGAGCUCAACACAGCAUGGCAAAGUGGCUGUGGCUUGUCUGCC [G19A A39U A41U] is 0.67. As for GGCAGAGCUCAACACAGUAUGGCAAAGUGGCAGCGGCUAGACUGCC [C18U G19A U32A U34C], the figure is 0.02.

In the case of GGCAGAGCUCAACACAGUGUGGCAAAGUGGCUUCGGCUAGACUGCC [C18U G33U U34C], the self-cleavage came out at 0.02. Regarding GGCAGAGCUCAACACAGUCUGGCAAAGUGGCUGUGGCUAGACUUCC [C18U G19C G44U], the self-cleavage came out at 0.07.

As to GGCAGAGCUCAACACAGGGUGGCAAAGAAGUUGUGGCUAGACUGCC [C18G U28A G29A C31U], the self-cleavage was determined as 0.04.

Regarding GGCAGAGCUCAACACAGUGUGGCAAAGUGGUUGUAGCUAGACUGCC [C18U C31U G35A], the self-cleavage worked out at 0.02. As to GGCAGAGCUCAACACAGUGUGGCAAAGUGGUUGUCGCUAGACUGCC [C18U C31U G35C], the self-cleavage was found to be 0.05. Turning to GGCAGAGCUCAACACAGGGUGGCAAAGGGGCUGUGGCGAGACUGAC [C18G U28G U38G C45A], the self-cleavage was found to be 0.01. As for GGCAGAGCUCAACACAGCAUGGGAAAGUGGCUGAGGCUAGAAUGCC [G19A C23G U34A C42A], the figure is 0.06. The figure for GGCAGAGCUCAACACAGUGUUGCAAGGUGGCUGUGGCUAGACUGCC [C18U G21U A26G] is 1.34; for GGCAGAGCUCAACACAGUGUUGCAAAGUGGCGGUGGCUAGACUGCC [C18U G21U U32G] it is 0.09; for GGCAGAGCUCAACACAGCAUGGUAAAGUUGCUGUGGCUAGACUGCC [G19A C23U G29U] it is 0.36. As for GGCAGAGCUCAACACAGUGUGGCAACGUGGCUGUGGCAAGACUGCC [C18U A26C U38A], the figure is 0.45; as for GGCAGAGCUCAACACAGUGUGGCAAAGUGGCUGUGGGUAGACUUCU [C18U C37G G44U C46U], 0.03.

With GGCAGAGCUCAACACAGGGUGGCAAAGUGGCGUUGGCUAGACUGCG [C18G U32G G33U C46G], the self-cleavage amounted to 0.04. As for GGCAGAGCUCAACACAGUGCGGCAAAGUGGCUGUGGGUAGACUGUC [C18U U20C C37G C45U], the figure is 0.02; as for GGCAGAGCUCAACACAGUGUGGCAAAGUGCGUGUGGCUAGACUGCC [C18U G30C C31G], 0.28. The figure for GGCAGAGCUCAACACAGUUUUGCAAAGUGGCUGUGGCUAGACUGCC [C18U G19U G21U] is 1.55. As for GGCAGAGCUCAACACAGCAUGGCAAAGUGGCUGUGGCUCGCCUCCC [G19A A39C A41C G44C], the figure is 0.04. On to GGCAGAGCUCAACACAGUGUGGCAAAGUACCUGUGGCUAGACUGCC [C18U G29A G30C], for which the self-cleavage was found to be 1.41.

Consider GGCAGAGCUCAACACAGCAUGGCAAAGUGGAUGUGGCUAUAAUGCC [G19A C31A G40U C42A], for which the self-cleavage is 0.03. The figure for GGCAGAGCUCAACACAGUGUGGCAAAUUGGAUGUGGCUAGACUGCC [C18U G27U C31A] is 0.57.

Turning to GGCAGAGCUCAACACAGCAUGGCGAACUGGCUGUCUCUAGACCGCC [G19A A24G G27C G35C G36U U43C], the self-cleavage worked out at 0.06. The figure for GGCAGAGCUCAACACAGCAUGGCGAAGUGGAUGUGGCUAGACUGCC [G19A A24G C31A] is 0.56. As for GGCAGAGCUCAACACAGCAUGGUAAAGCAGCUGUGGCUAGACUGCC [G19A C23U U28C G29A], the figure is 0.9; as for GGCAGAGCUCAACACAGUGUGUCAAAGUGGCUGUGCCUAGACUGCC [C18U G22U G36C], 0.05. For GGCAGAGCUCAACACAGUGUGGCAAAGUUGCUGUGGCUAGUCUGCC [C18U G29U A41U], the self-cleavage amounted to 1.36. The figure for GGCAGAGCUCAACACAGGGAGCCAAAGUGGCUGUGGCUAGACUGCC [C18G U20A G22C] is 0.95; for GGCAGAGCUCAACACAGUGUGGCAAAUUGGCUGUCGCUUGACUGCU [C18U G27U G35C A39U C46U] it is 0.01; for GGCAGAGCUCAACACAGCAUGGCACAGCGACUGUGGCUAGACUGCC [G19A A25C U28C G30A] it is 0.37. As for GGCAGAGCUCAACACAGGGUGGCAAAGUGGCUGUUUCUAGACUGCC [C18G G35U G36U], the figure is 0.02. As for GGCAGAGCUCAACACAGGGUGGCAAAAUGGCUGCGGCUAGACUUCC [C18G G27A U34C G44U], the figure is 0.04.

In the case of GGCAGAGCUCAACACAGUGUGGCAAAGUGGCUGGGGCUAUACUGCC [C18U U34G G40U], the self-cleavage worked out at 0.03.

For the variant GGCAGAGCUCAACACAGGGUGGCAAAGAGGCUGUGCCUAGACUGGC [C18G U28A G36C C45G], the self-cleavage stood at 0.01.
